The text below walks through data of the supplement of paper PMC11417369.

Some of the results follow.

The assay deals with PF3D7_0420300 AP2 domain 1 (GST-tagged). The assay can be described thus: gcPBM binding intensity (ln(normalized median fluorescence intensity)); higher = stronger DNA binding. Put shortly:
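Probes on an Agilent 4 × 180k array were primer-extended, double-stranded and 36 bp long, taken from intergenic genomic regions, with negative controls added. GST-tagged P. falciparum DNA-binding domains from E. coli, about 25 μg on average, were applied to the array for 1 h in 1× PBS containing 1% milk, 0.2 mg/ml BSA, 0.5% salmon testes DNA and 0.03% Triton X-100. Binding intensity, obtained after Alexa488 anti-GST antibody detection and a 488 nm scan, is the highest Masliner-normalised natural-log median intensity across replicate spots of either probe orientation.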
In the case of “AATATATTAAATCTTACACACTAAAAAATATGTAAC [CACACA_site4325]”, the “gcPBM binding intensity (ln)” value is 9.47.

“TGTTTAACACATGTTTCAAACAAAAAAAAAAAGACA [CACACA_negctrl_site1356]”: the “gcPBM binding intensity (ln)” value was found to be 9.2.

For the sequence “TTTTAACATAGAAGTACACACATATAATCAATCATA [CACACA_site5313]”, the “gcPBM binding intensity (ln)” value was found to be 9.6.

Consider “TTTTAAATTTTTTAAAGTACACGTCGAAAAGGTATA [XGTACX_site76]”, for which the “gcPBM binding intensity (ln)” value was 8.97.

Regarding “TATTTATTTATTTATGCATGCATGAATAATTTTTAC [TGCATGCA_site31]”, the “gcPBM binding intensity (ln)” value came to 9.13.

Take “ATTATTTAGAAATGAGCACACAAAAAGAAGAATTTT [CACACA_site7913]”: the “gcPBM binding intensity (ln)” value amounted to 9.33.

Take “ACAAGAGAAGTAATTGCACACGTTGTTTCTTTTTCT [CACACA_site35]”: the “gcPBM binding intensity (ln)” value amounted to 9.55.

As to “CCACATATACAAAACACACACACAACGTTTTAATAA [CACACA_site1978]”, the “gcPBM binding intensity (ln)” value was determined as 9.95.

For the sequence “ATAATAATATAAAATACACACCTATTATTTTTACAA [CACACA_site6069]”, the “gcPBM binding intensity (ln)” value was determined as 9.47.

For “TCACTATAGTAATTTACACACATTTGAAGAAAATGT [CACACA_site7626]”, the “gcPBM binding intensity (ln)” value turned out to be 9.48.

With “TTATCATTTGGACACGCACACACACCGAAAAAGAAA [CACACA_site8008]”, the “gcPBM binding intensity (ln)” value is 9.85.

With “TTTTTTGCTAAAAAGAGTACTAATAAAAAATTTATT [XGTACX_site5235]”, the “gcPBM binding intensity (ln)” value turned out to be 8.77.

Take “TTTTTGTAATTATATTAATATATATATATATATATA [CACACA_negctrl_site198]”: the “gcPBM binding intensity (ln)” value was determined as 9.11.

As to “AATAATTTAAGGAATACACACAAGAAAAAAATAAGA [CACACA_site60]”, the “gcPBM binding intensity (ln)” value worked out at 9.9.

With “GAAAACATTAAAAGTTAGATCATAAGAAAAGAATAT [GTGCAC_negctrl_site726]”, the “gcPBM binding intensity (ln)” value turned out to be 9.32.

On to “GTTCATCACATATACACATGCATATTCTAATATGTA [TGCATGCA_site809]”, for which the “gcPBM binding intensity (ln)” value is 9.37.

With “ACATTATATAAAATATGTACATATAAAAAATTCTAT [XGTACX_site1617]”, the “gcPBM binding intensity (ln)” value was 9.25.

With “CATATATGTGATAACACGCACACAAATGTATAGAAT [CACACA_site2594]”, the “gcPBM binding intensity (ln)” value was found to be 9.52.

Regarding “TCTAATGATATATACACACACATATAGATTTATATA [CACACA_site7044]”, the “gcPBM binding intensity (ln)” value turned out to be 9.64.

For the sequence “ATTTTTCTAAAATACTGTACAAAGGTGCATAAAAAG [XGTACX_site4425]”, the “gcPBM binding intensity (ln)” value is 9.03.

For “ATATTTATGGAATATACACACATGTATAATTATATA [CACACA_site2033]”, the “gcPBM binding intensity (ln)” value stood at 9.44.

“TTTTCTGTTTTCATTACACACCTTACAAGAACAATA [CACACA_site2158]”: the “gcPBM binding intensity (ln)” value was 9.34.

In the case of “AAATAAGAAAAAGCGCGTACACATAACATTTTTATA [XGTACX_site8807]”, the “gcPBM binding intensity (ln)” value stood at 9.49.

With “TGCTTTTCTTTTTGCACACTTATGCATATATATATA [CACACA_site2583]”, the “gcPBM binding intensity (ln)” value was 9.54.

Take TTTATTCAAGGAATAGTGCATAATAATAAGTATTAT: the “gcPBM binding intensity (ln)” value was 9.11.

Regarding TGTATTCTCTTAGTAGTGCATTTGAAGATTATATAA, the “gcPBM binding intensity (ln)” value stood at 9.14.

Take “TAGAATATGTTTAGTTGTACAAAACAAAATGGAATT [XGTACX_site5293]”: the “gcPBM binding intensity (ln)” value amounted to 9.17.

For “CACATAAAAAAATAAACACACATATGTATATATATA [CACACA_site3177]”, the “gcPBM binding intensity (ln)” value stood at 9.75.

Take “ATTTATTTTTTGTGTTCACACATTAGTATCATCTAT [CACACA_site5274]”: the “gcPBM binding intensity (ln)” value came to 9.49.

Take “TTTTTTTTTCGCTTTTGTACACATTTTATAGAACAG [XGTACX_site2416]”: the “gcPBM binding intensity (ln)” value was 9.4.

As for “TATTATATATATGGAAGTACAGGTATATCGTTTTTC [XGTACX_site3771]”, the “gcPBM binding intensity (ln)” value is 9.29.

With “TTTTCCCTTAACCTCTGTACATATAATTTTCTTTCC [XGTACX_site4180]”, the “gcPBM binding intensity (ln)” value was found to be 9.3.

For “AAATATTTTTTAATTGTTCACTTGGTGGATCATTAA [CACACA_negctrl_site922]”, the “gcPBM binding intensity (ln)” value came to 8.99.

For “TATCCATTATTTAAAAGTACAAAAAACGATTTACAC [XGTACX_site2979]”, the “gcPBM binding intensity (ln)” value came out at 9.27.

With “ATTTTTTTTTTTTTTTCATGAAATTTTTTTTTTTTT [CACACA_negctrl_site1069]”, the “gcPBM binding intensity (ln)” value stood at 9.24.

In the case of “ATATATTTATTATTAGGTACACATATATATATATAT [XGTACX_site5045]”, the “gcPBM binding intensity (ln)” value amounted to 9.36.

Take “TTAAAAAAAAATAAAGGTACACGGAGAAATCCTTTT [XGTACX_site7509]”: the “gcPBM binding intensity (ln)” value came out at 9.18.

Regarding “AACCACCACACCATCACACATAAGATTAGACGAGTA [CACACA_site6063]”, the “gcPBM binding intensity (ln)” value came out at 9.25.

With “TGTAGTAATGCTTATTGTACATATACATTTCTTACA [XGTACX_site219]”, the “gcPBM binding intensity (ln)” value was determined as 9.28.

Regarding “TTATATAGAATTAATTTCTTTTTTTTCTTTTTTAAA [CACACA_negctrl_site1308]”, the “gcPBM binding intensity (ln)” value stood at 8.79.

For “TATAATGGTAAAAACACACAAATATGAAGATGTTAA [CACACA_site6479]”, the “gcPBM binding intensity (ln)” value was found to be 9.3.

Consider “GATGGGCAAATTTACTGTACTTTTATAATATTTTTT [XGTACX_site4830]”, for which the “gcPBM binding intensity (ln)” value was 9.47.

On to “AAAATTGTGAAAGGGAAGATGATCAAATTGTTAAGG [CACACA_negctrl_site1492]”, for which the “gcPBM binding intensity (ln)” value came to 9.37.

For the sequence “AAAAAAAATTATATTTGTACGCATTAAAAAATCTAA [XGTACX_site1616]”, the “gcPBM binding intensity (ln)” value amounted to 8.88.
